Consider three molecules from US20230113563A1 (SYSTIMMUNE, published 2023).

B1: SI-49R24 (Fc fusion)
chain 1: FLNSLFNQEVQIPLTESYCGPCPKNWICYKNNCYQFFDESKNWYESQASCMSQNASLLKVYSKEDQDLLKLVKSYHWMGLVHIPTNGSWQWEDGSILSPNLLTIIEMQKGDCALYASSFKGYIENCSTPNTYICMQRTVAS[human IgG1 Fc with C220S L234A L235A N297A K322A S354C T366W (EU numbers) cut from this listing]
chain 2: FLNSLFNQEVQIPLTESYCGPCPKNWICYKNNCYQFFDESKNWYESQASCMSQNASLLKVYSKEDQDLLKLVKSYHWMGLVHIPTNGSWQWEDGSILSPNLLTIIEMQKGDCALYASSFKGYIENCSTPNTYICMQRTVASEPKSSDKTHTCPPCPAPEAAGGPSVFLFPPKPKDTLMISRTPEVTCVVVDVSHEDPEVKFNWYVDGVEVHNAKTKPREEQYASTYRVVSVLTVLHQDWLNGKEYKCAVSNKALPAPIEKTISKAKGQPREPQVCTLPPSRDELTKNQVSLSCAVKGFYPSDIAVEWESNGQPENNYKTTPPVLDSDGSFFLVSKLTVDKSRWQQGNVFSCSVMHEALHNHYTQKSLSLSPGK
notes: Same structure as SI-49R23 (NKG2D-Fc, no CH1/CL), but with knobs-into-holes mutations in the Fc; Both chains are NKG2D-Fc chains
B2: SI-49R21 (Fc fusion)
heavy: FLNSLFNQEVQIPLTESYCGPCPKNWICYKNNCYQFFDESKNWYESQASCMSQNASLLKVYSKEDQDLLKLVKSYHWMGLVHIPTNGSWQWEDGSILSPNLLTIIEMQKGDCALYASSFKGYIENCSTPNTYICMQRTVASTKGPSVFPLAPSSKSTSGGTAALGCLVKDYFPEPVTVSWNSGALTSGVHTFPAVLQSSGLYSLSSVVTVPSSSLGTQTYICNVNHKPSNTKVDKRV[human IgG1 Fc with L234A L235A N297A K322A (EU numbers) cut from this listing]
light: FLNSLFNQEVQIPLTESYCGPCPKNWICYKNNCYQFFDESKNWYESQASCMSQNASLLKVYSKEDQDLLKLVKSYHWMGLVHIPTNGSWQWEDGSILSPNLLTIIEMQKGDCALYASSFKGYIENCSTPNTYICMQRTVRTVAAPSVFIFPPSDEQLKSGTASVVCLLNNFYPREAKVQWKVDNALQSGNSQESVTEQDSKDSTYSLSSTLTLSKADYEKHKVYACEVTHQGLSSPVTKSFNRGEC
notes: Monospecific GNC (antibody-like protein) with NKG2D receptor in place of the antibody VH/VL domains (D2); The NKG2D monomers on the two chains dimerize upon chain association
B3: SI-49R22 (Fc fusion)
heavy 1: FLNSLFNQEVQIPLTESYCGPCPKNWICYKNNCYQFFDESKNWYESQASCMSQNASLLKVYSKEDQDLLKLVKSYHWMGLVHIPTNGSWQWEDGSILSPNLLTIIEMQKGDCALYASSFKGYIENCSTPNTYICMQRTVASTKGPSVFPLAPSSKSTSGGTAALGCLVKDYFPEPVTVSWNSGALTSGVHTFPAVLQSSGLYSLSSVVTVPSSSLGTQTYICNVNHKPSNTKVDKRV[human IgG1 Fc with L234A L235A N297A K322A S354C T366W (EU numbers) cut from this listing]
light: B2 light
heavy 2: FLNSLFNQEVQIPLTESYCGPCPKNWICYKNNCYQFFDESKNWYESQASCMSQNASLLKVYSKEDQDLLKLVKSYHWMGLVHIPTNGSWQWEDGSILSPNLLTIIEMQKGDCALYASSFKGYIENCSTPNTYICMQRTVASTKGPSVFPLAPSSKSTSGGTAALGCLVKDYFPEPVTVSWNSGALTSGVHTFPAVLQSSGLYSLSSVVTVPSSSLGTQTYICNVNHKPSNTKVDKRVEPKSCDKTHTCPPCPAPEAAGGPSVFLFPPKPKDTLMISRTPEVTCVVVDVSHEDPEVKFNWYVDGVEVHNAKTKPREEQYASTYRVVSVLTVLHQDWLNGKEYKCAVSNKALPAPIEKTISKAKGQPREPQVCTLPPSRDELTKNQVSLSCAVKGFYPSDIAVEWESNGQPENNYKTTPPVLDSDGSFFLVSKLTVDKSRWQQGNVFSCSVMHEALHNHYTQKSLSLSPGK
notes: Same format as SI-49R21 (NKG2D at D2), but with a heterodimerizing knobs-into-holes Fc

This test deals with T1, human MICA (Acro, MIA-H5221) (human, UniProt Q29983 24-307, limits assumed).
T1 construct: Bought reagent used as analyte in solution; also called NKG2D ligand MICA
T1 sequence (Q29983 24-307 limits assumed): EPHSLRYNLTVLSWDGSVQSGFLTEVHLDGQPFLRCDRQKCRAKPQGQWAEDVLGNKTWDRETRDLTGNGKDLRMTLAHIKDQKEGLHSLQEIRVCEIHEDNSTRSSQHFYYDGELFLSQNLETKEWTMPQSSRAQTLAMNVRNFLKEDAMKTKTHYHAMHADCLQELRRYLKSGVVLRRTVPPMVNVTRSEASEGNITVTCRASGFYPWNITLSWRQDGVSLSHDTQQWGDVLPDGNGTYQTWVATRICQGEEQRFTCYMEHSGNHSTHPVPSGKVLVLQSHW
As to the kind of experiment: BLI (Octet); GNC protein loaded on AHC sensors at 5 ug/ml; human MICA as analyte, 1:2 serial dilutions from 100 nM; global fit, 1:1 model. How it is done: To validate functionality of the NKG2D receptor in the D2 position, Octet binding was performed. GNC protein was loaded onto AHC sensors at 5 ug/ml, and subsequently bound to 1:2 serial dilutions (top concentration 100 nM) of human MICA (Acro, MIA-H5221).
In general, Kd refers to the equilibrium constant for the complex coming apart. B1 showed a dissociation constant Kd of 17.7 nM. Then B2, with 8.95 nM; and B3, with 1.93 nM.
